From PMC4336329 (PLoS ONE, 2015)
The campaign covered roughly 310,000 compounds. About 14,000 (4.5%) showed an effect of 50% or more. Effects have a minus sign here. Some of the results follow.

These molecules were tested against human ether-à-go-go-related gene (hERG) potassium channel (human, UniProt Q12809) (assay: primary screen, population patch clamp on CHO cells stably expressing hERG).
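Further: peak tail current of the secondary pulse compared with the same well before compound.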

Sequence of human ether-à-go-go-related gene (hERG) potassium channel (Q12809 whole entry, looked up): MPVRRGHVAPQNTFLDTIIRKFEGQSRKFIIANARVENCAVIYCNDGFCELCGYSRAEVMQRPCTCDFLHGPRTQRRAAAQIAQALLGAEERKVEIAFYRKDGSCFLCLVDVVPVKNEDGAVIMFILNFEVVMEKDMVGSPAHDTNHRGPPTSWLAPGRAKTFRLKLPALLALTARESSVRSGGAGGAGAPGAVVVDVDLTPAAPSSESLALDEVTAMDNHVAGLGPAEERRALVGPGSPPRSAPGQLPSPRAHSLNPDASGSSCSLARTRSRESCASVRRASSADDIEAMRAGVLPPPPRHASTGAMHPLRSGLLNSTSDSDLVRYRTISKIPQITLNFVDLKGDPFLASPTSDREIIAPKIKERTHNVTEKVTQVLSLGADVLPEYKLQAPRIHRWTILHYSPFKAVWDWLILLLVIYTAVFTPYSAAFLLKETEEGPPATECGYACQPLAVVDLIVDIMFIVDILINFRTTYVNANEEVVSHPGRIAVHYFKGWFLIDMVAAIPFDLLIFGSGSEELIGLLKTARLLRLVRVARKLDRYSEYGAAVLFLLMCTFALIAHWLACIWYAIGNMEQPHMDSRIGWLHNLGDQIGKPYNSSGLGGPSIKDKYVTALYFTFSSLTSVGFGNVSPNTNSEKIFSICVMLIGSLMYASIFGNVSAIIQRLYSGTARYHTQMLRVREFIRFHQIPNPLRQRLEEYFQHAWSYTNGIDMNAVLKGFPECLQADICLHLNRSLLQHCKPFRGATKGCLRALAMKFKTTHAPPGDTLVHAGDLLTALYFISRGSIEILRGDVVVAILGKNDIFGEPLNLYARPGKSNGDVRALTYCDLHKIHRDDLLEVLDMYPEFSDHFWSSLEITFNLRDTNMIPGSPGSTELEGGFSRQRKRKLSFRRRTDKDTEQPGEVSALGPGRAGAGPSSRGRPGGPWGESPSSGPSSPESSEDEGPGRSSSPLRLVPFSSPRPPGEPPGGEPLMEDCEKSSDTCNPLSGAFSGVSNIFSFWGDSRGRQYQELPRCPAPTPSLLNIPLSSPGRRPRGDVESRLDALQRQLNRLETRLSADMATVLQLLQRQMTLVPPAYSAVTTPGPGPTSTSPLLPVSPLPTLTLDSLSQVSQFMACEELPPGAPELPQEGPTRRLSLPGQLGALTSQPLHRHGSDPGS

First: Cc1cc(=O)n2nc(N3CCCC3C(=O)NCCCN3CC(C)CC(C)C3)sc2n1 (stereo not drawn)
Second: Cc1ccc(C)c(S(=O)(=O)N2CCCC2CNC(=O)C(=O)NC2CC2)c1 (stereo not drawn)
The “hERG current change (%, negative = inhibition) at 10uM” value of the first is higher: 22% for the first, -0.659% for the second.

Compared with CC(=O)NS(=O)(=O)c1ccc(N=c2ssc3c2-c2ccc(C)cc2NC3(C)C)cc1, CC1Sc2ccc(C(=O)Nc3ccc(S(=O)(=O)N(C)C)cc3)cc2NC1=O (stereo not drawn) is lower in “hERG current change (%, negative = inhibition) at 10uM” value: -1.08% for the first, -21.8% for the second.

First: Cc1cccc(NC(=O)C2CCN(S(=O)(=O)c3cccc4cccnc34)CC2)c1
Second: Cc1cccc(NC(=O)CN(C)S(=O)(=O)c2cccc3cccnc23)c1C
The “hERG current change (%, negative = inhibition) at 10uM” value of the first is higher: -3.14% for the first, -5.69% for the second.

Going from Cl.Nn1cnnc1N/N=C/c1cccc(Cl)c1Cl to O=[N+]([O-])c1ccc(O)c(/C=N/Nc2nn[nH]n2)c1, the “hERG current change (%, negative = inhibition) at 10uM” value rises from 3.58% to 21.5%.

Compared with Cc1cc(C(=O)Nc2cnn(Cc3ccc(Cl)cc3Cl)c2)no1, O=C(Nc1ccc(F)c(Cl)c1)c1cc(-c2ccco2)on1 is higher in “hERG current change (%, negative = inhibition) at 10uM” value: -1.98% for the first, 1.11% for the second.

First: COC(=O)C1=C(C(=O)OC)[C@@H]2N(Cc3ccccc3)c3ccccc3[C@@]23C[C@@H](C(=O)OC)N(C(=O)NC(C)(C)C)C3=N1
Second: CCC(C)NC(=O)c1nn(Cc2ccccc2)c(=O)c2ccccc12 (stereo not drawn)
The “hERG current change (%, negative = inhibition) at 10uM” value of the first is lower: -11.7% for the first, 11.9% for the second.

Compared with COc1ccccc1NC(=O)CC1C(=O)Nc2c1c(=O)n(C)c(=O)n2C (stereo not drawn), CCN(CC(=O)Nc1ccccc1OC)C(=O)/C=C/c1cccs1 is lower in “hERG current change (%, negative = inhibition) at 10uM” value: 4.88% for the first, -6.54% for the second.

Going from CNC(=O)Nc1ccccc1NC(=O)NC to CC(C)(C)c1cc(NC(=O)COC(=O)C2CC2)n(-c2ccccc2)n1, the “hERG current change (%, negative = inhibition) at 10uM” value falls from 26.6% to -13%.

First: O=C(NC1CCCCC1)OCCN1CCN(Cc2ccccc2)CCC1=O
Second: CC1CCCCN1CCCNC(=O)c1ccc2c(=O)n(CCc3ccccc3)c(=O)[nH]c2c1 (stereo not drawn)
The “hERG current change (%, negative = inhibition) at 10uM” value of the first is lower: -19.9% for the first, -19.6% for the second.

Compared with CCOC(=O)C(C)Sc1ncc(OC)c(Sc2ccc(Cl)cc2)n1 (stereo not drawn), COc1ccc(/C=C(\C#N)C(=O)OCC(=O)NCc2ccc(Cl)cc2)cc1 is higher in “hERG current change (%, negative = inhibition) at 10uM” value: 2.7% for the first, 2.84% for the second.

Compared with CCCCC1(O)CC(C(F)(F)F)=NN1C(=O)COc1ccccc1 (stereo not drawn), N/C(Cc1cccs1)=N\OC(=O)COc1ccccc1 is higher in “hERG current change (%, negative = inhibition) at 10uM” value: -13.2% for the first, 3.16% for the second.

Compared with CCCOc1ccc(-c2c(C(=O)N/N=C/c3ccc(C)o3)nnn2-c2nonc2N)cc1, Cc1ccc(/C=N/NC(=O)c2ccc(-c3ccccc3)cc2)o1 is lower in “hERG current change (%, negative = inhibition) at 10uM” value: 19.4% for the first, -9.83% for the second.

First: CN(C)CCNC(=S)NC1CCCCC1
Second: CCCN1C2CCCC1CC(NC(=O)Nc1ccc(C(C)C)cc1)C2 (stereo not drawn)
The “hERG current change (%, negative = inhibition) at 10uM” value of the first is higher: 19.7% for the first, 12.8% for the second.

First: COc1ccc(/C=N/OCC(=O)Nc2nc3ccccc3s2)cc1OC
Second: COc1ccc(CCNc2oc(-c3ccc(C)cc3)nc2C#N)cc1OC
The “hERG current change (%, negative = inhibition) at 10uM” value of the first is lower: 11.4% for the first, 13.6% for the second.

Going from CC1(c2ccccc2Cl)NC(=O)N(CC(=O)Nc2ccc(N3CCCCC3)cc2)C1=O (stereo not drawn) to O=C(CSc1ccccn1)Nc1ccc(N2CCOCC2)cc1, the “hERG current change (%, negative = inhibition) at 10uM” value rises from -21.9% to 3.15%.

First: O=C(COC(=O)[C@@H]1CCCN1S(=O)(=O)c1ccc(Cl)cc1)NC1CC1
Second: O=C(COC(=O)Cc1ccc(S(=O)(=O)N2CCOCC2)s1)NCCc1ccccc1
The “hERG current change (%, negative = inhibition) at 10uM” value of the first is lower: -4.21% for the first, -1.49% for the second.

Compared with O=C(O)CSc1nnc(-c2cc3ccccc3o2)n1-c1ccccc1, Nc1cccc2c1C(=O)N(Cc1nnc(-c3ccccc3Br)o1)C2=O is lower in “hERG current change (%, negative = inhibition) at 10uM” value: 7.76% for the first, 0.2% for the second.

First: CC(CC(=O)N1CCN(c2cccc(Cl)c2)CC1)S(=O)(=O)c1ccc2c(c1)NC(=O)CO2 (stereo not drawn)
Second: CN(c1ccccc1)S(=O)(=O)c1ccc(Cl)c(C(=O)OCC(=O)N2CCOCC2)c1
The “hERG current change (%, negative = inhibition) at 10uM” value of the first is higher: -22.8% for the first, -28.5% for the second.

First: COc1ccc2c(c1OC)C(=O)OC2n1c(O)c(N=NC(C)=O)c2ccccc21 (stereo not drawn)
Second: NC(=O)c1ccc(N=Nc2c(O)c3ccccc3[nH]c2=O)cc1
The “hERG current change (%, negative = inhibition) at 10uM” value of the first is higher: 13.5% for the first, 10.4% for the second.

Compared with CC1Cc2cc(/C(O)=C3/C(=O)C(=O)N(Cc4ccco4)C3c3cccs3)ccc2O1 (stereo not drawn), CCOC(=O)c1cc(CC)sc1NC(=O)CSc1nc2ccccc2c(=O)n1Cc1ccco1 is lower in “hERG current change (%, negative = inhibition) at 10uM” value: -1.15% for the first, -3.35% for the second.

First: COCCCNC(=O)c1c(N)n(Cc2ccco2)c2nc3ccccc3nc12
Second: CCCCN(C(=O)CSCC(=O)Nc1ccc(OC)cc1)c1c(N)n(Cc2ccccc2)c(=O)[nH]c1=O
The “hERG current change (%, negative = inhibition) at 10uM” value of the first is lower: -2.08% for the first, 1.51% for the second.

Going from CCOc1ccc(-c2noc(CCC(=O)NC)n2)cc1OCC to CN(C)c1ccc(-c2noc(C3CCN(S(=O)(=O)c4cccc(C(=O)O)c4)CC3)n2)cc1, the “hERG current change (%, negative = inhibition) at 10uM” value rises from 2.22% to 9.1%.

Compared with Cc1ccccc1NC(=S)c1nc2ccccc2[nH]1, COc1cccc(/C=N/NC(=S)NCCc2ccccc2)c1OC is higher in “hERG current change (%, negative = inhibition) at 10uM” value: 16.3% for the first, 16.7% for the second.

Going from CC(=O)Nn1c(C)nnc1-n1nc(C)cc1C to CCC(C(=O)Nc1c(C)cc(C)cc1C)N1CCCCCC1 (stereo not drawn), the “hERG current change (%, negative = inhibition) at 10uM” value falls from 14.6% to 2.63%.

First: Cc1cc([N+](=O)[O-])cnc1NC(C)c1ccccc1 (stereo not drawn)
Second: O=[N+]([O-])c1cccc(C(=Nc2ccccc2)NO)c1
The “hERG current change (%, negative = inhibition) at 10uM” value of the first is lower: -1.33% for the first, 3.51% for the second.

Going from O=C(O)C1CCCN1c1nc(-c2ccc(Cl)c(Cl)c2)cc(C(F)(F)F)n1 (stereo not drawn) to CC(C)c1nnc(NC(=O)C2CCCN2C(=O)Nc2ccc(F)cc2)s1 (stereo not drawn), the “hERG current change (%, negative = inhibition) at 10uM” value rises from -3.5% to 1.71%.

First: CN(Cc1ccccn1)C(=O)CC1C(=O)NCCN1Cc1ccc(F)cc1Cl (stereo not drawn)
Second: CCCn1c(NC(=O)c2cccc(S(=O)(=O)N3CCCC3)c2)nc2ccccc21
The “hERG current change (%, negative = inhibition) at 10uM” value of the first is higher: 16.4% for the first, -28.8% for the second.

Going from CCOC(=O)c1ccc(NC(=O)c2cccc(S(=O)(=O)N3CCN(C(C)=O)CC3)c2)cc1 to CCN(CC)c1ccc(NC(=O)c2ccccc2)cc1S(=O)(=O)Nc1ccccc1OC, the “hERG current change (%, negative = inhibition) at 10uM” value rises from -15.3% to 0.622%.

Going from CCCNC(=O)Cn1c(=O)n(CC(=O)N2CCCCC2)c(=O)c2sccc21 to CCn1cnc2c1c(=O)n(CC(=O)N1CCc3ccccc31)c(=O)n2Cc1ccccc1, the “hERG current change (%, negative = inhibition) at 10uM” value rises from 17.1% to 17.8%.

First: CN(C)N1C(N)=C(C#N)C(c2ccc(Br)cc2)C2=C1CC(C)(C)CC2=O (stereo not drawn)
Second: COC(=O)c1c(C)[nH]c(C(=O)C(C)OC(=O)C2CC(=O)N(c3ccc(C)cc3)C2)c1C (stereo not drawn)
The “hERG current change (%, negative = inhibition) at 10uM” value of the first is higher: 28.7% for the first, -14.5% for the second.

Going from C=CCN(CC=C)S(=O)(=O)c1ccc2nc(NC(=O)C(C)C)sc2c1 to CCOc1ccc2nc(NC(=O)c3cc([N+](=O)[O-])ccc3N3CCOCC3)sc2c1, the “hERG current change (%, negative = inhibition) at 10uM” value rises from -19.9% to 3.68%.

Compared with COc1ccccc1/C=C/CN1CCC(CO)(Cc2ccccc2)CC1, O=C(Nc1ccc(OCc2ccccc2)cc1)Nc1ccccc1C(=O)NCCCN1CCOCC1 is higher in “hERG current change (%, negative = inhibition) at 10uM” value: -37.9% for the first, 1.41% for the second.

Going from O=S(=O)(c1ccc(-c2ccon2)s1)N1CCOCC1 to Cc1ccc(NC(=O)C2CCCN(S(=O)(=O)c3c(C)noc3C)C2)cc1 (stereo not drawn), the “hERG current change (%, negative = inhibition) at 10uM” value rises from 6.48% to 10.2%.

Compared with COc1cccc(OCC(=O)NNC(=O)c2ccc(-c3ccccc3)cc2)c1, CN(CC(=O)Nc1c(Cl)cccc1Cl)C(=O)c1ccccc1Cc1ccccc1 is lower in “hERG current change (%, negative = inhibition) at 10uM” value: -5.49% for the first, -20.7% for the second.

First: CC(C)c1ccc(N2C(=O)CC(Sc3ncn[nH]3)C2=O)cc1 (stereo not drawn)
Second: COC(=O)C1CCN(C2CC(=O)N(c3cc(C)cc(C)c3)C2=O)CC1 (stereo not drawn)
The “hERG current change (%, negative = inhibition) at 10uM” value of the first is higher: 13.9% for the first, 1.73% for the second.

Going from N#CC1=C(N)C(C#N)(C#N)C(c2ccncc2)C2CN(C(=O)OCc3ccccc3)CC=C12 (stereo not drawn) to N#CCCn1cc(/C=N/NC(N)=S)c(-c2ccc(-c3ccccc3)cc2)n1, the “hERG current change (%, negative = inhibition) at 10uM” value rises from 0.872% to 8%.

Going from CN(C)S(=O)(=O)N1CCN(C(=O)c2cccs2)CC1 to O=C(O)C1CC=CCC1C(=O)Nc1cccc(C(=O)N2CCCCC2)c1 (stereo not drawn), the “hERG current change (%, negative = inhibition) at 10uM” value falls from 7.17% to -5.25%.

Compared with Cc1occc1C(=O)N/N=C/c1c[nH]c2ccccc12, C/C(=N\NS(=O)(=O)c1ccccc1)c1ccc2c(c1)OCO2 is lower in “hERG current change (%, negative = inhibition) at 10uM” value: -3.53% for the first, -3.88% for the second.

Compared with Cc1ccc(C)c2sc(N)nc12, COC(=O)C1=C(c2c(C)noc2C)C[C@@H]2CC[C@H]1N2C(=O)NC1Cc2ccccc2C1 is lower in “hERG current change (%, negative = inhibition) at 10uM” value: 22.6% for the first, -9.79% for the second.

Compared with Cc1ccc(S(=O)(=O)N(Cc2ccccc2)c2ccccc2C(=O)NCc2cccnc2)cc1, Cc1ccc2[nH]c3c(N4CCN(Cc5ccccc5)CC4)ncnc3c2c1 is lower in “hERG current change (%, negative = inhibition) at 10uM” value: -33.2% for the first, -72.3% for the second.

Compared with CC(C)(C)OC(=O)NCCCC[C@H](NC(=O)c1nc[nH]c1C(=O)N1CCc2ccccc2C1)C(=O)OC(C)(C)C, COC(=O)c1cc(C(=O)OCC(=O)NCc2ccc3c(c2)OCO3)cc([N+](=O)[O-])c1 is higher in “hERG current change (%, negative = inhibition) at 10uM” value: -8.58% for the first, 5.12% for the second.

Compared with O=c1[nH]c(Nc2ccc3c(c2)OCCO3)nnc1Cc1ccc(Cl)cc1, CC(O)CN1C(=O)C(CC(=O)Nc2ccc(Cl)cc2)SC1=Nc1ccccc1 (stereo not drawn) is lower in “hERG current change (%, negative = inhibition) at 10uM” value: 33% for the first, 4.32% for the second.
